The whole screen tested about 94,000 compounds, of which about 6,200 (6.6%) were called active. A call without a number means that no potency is given here. Inconclusive means that the source gave no clear call. Such entries were picked first, then a sample of the others. Calls come from the whole dose curve; as a rule, active = well fitted inhibition curve with a large enough effect; inconclusive = small, poorly fitted or top-dose-only effect; inactive = flat fitted curve, though single readings scatter. Potencies of inconclusive entries are doubtful fits and often do not repeat.
assay: Cytotoxic Profiling in HEK 293 Cell Line of Diverse Libraries Using Quantitative High-Throughput Screening; conditions: HEK 293 viability, ATP luminescence (CellTiter-Glo), 48-72 h; series mostly up to 115 µM; note: nearly all actives have a fitted effect of over 60% in size
In short: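 Read-out: CellTiter-Glo ATP luminescence. Cells: HEK 293, 250 cells/well. Exposure: 48 or 72 hr, 37 degree Celsius.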
Potency is the fitted concentration of half-maximal effect; tags give direction and shape of the fitted curve.

Structure (SMILES)	Potency
COc1cccc(CN2CC(O)CN(S(=O)(=O)c3ccc(F)cc3)CC2=O)c1OC (configuration not stated)	inactive
O=C(NCc1ccccc1)[C@@H]1Cc2nc[nH]c2CN1Cc1ccc(Cl)cc1	inconclusive: 79.4 µM [inhibitor, partial curve]
CCOc1ccc2c(n1)CCN(C(=O)C1CC1)C2	inactive
COc1ccc(-c2cnc3n[nH]c(-c4ccc5c(c4)OCO5)c3n2)cc1	inconclusive: 35.5 µM [inhibitor, partial curve, poor fit]
C=CCN1C[C@H]2COc3c(OCC)cccc3[C@H]2N(C(=O)OC)CCC1=O	inactive
Cc1noc(C2CC3(CCN(C(=O)c4cc(C)n(C)n4)CC3)CN2C)n1 (configuration not stated)	inactive
Cn1cccc1C(=O)NCC(=O)N1CCCCCNC(=O)CC1c1ccccc1 (configuration not stated)	inactive
O=C1CC2(CCN(c3nc(-c4ccccc4)nc4c3CCC4)CC2)CN1	inconclusive: 89.1 µM [inhibitor, single point]
COc1cccc(N2C(=O)NC(=NC3CCCC3)C23CCCN(C(=O)c2ccccc2OC)C3)c1 (configuration not stated)	inactive
OCC1CN(Cc2ccc(Cl)o2)CCC12CCN(C1CCOCC1)CC2 (configuration not stated)	inactive
O=c1[nH]c(N2CCOCC2)nc2c1CCN(Cc1ccc(F)c(Br)c1)CC2	inconclusive: 79.4 µM [inhibitor, single point]
Cc1noc(C2CCCCCN2C(=O)COc2ccccc2)n1 (configuration not stated)	inactive
O=C(C1CCCC1)N1CCCN(c2nc3ncccc3o2)CC1	inconclusive: 112 µM [inhibitor, single point]
O=C1NCc2ccccc2CC12CCCCN2Cc1ccccc1F (configuration not stated)	inconclusive: 89.1 µM [inhibitor, partial curve]
COc1ccccc1CN1CCC2(CC1)CC(C(=O)O)N(C(C)=O)C2 (configuration not stated)	inactive
COCCOC1CN(C2CCN(C(=O)c3ccco3)CC2)C12CCCCC2 (configuration not stated)	inactive
COc1ccc2cc(CN3CCC(OC)CC3)c(-c3cccc(C)c3)nc2c1	inconclusive: 79.4 µM [inhibitor, single point]
Cc1ccc(-c2cc3c(nc2-c2ccccc2)nc(C(=O)NCCN(C)C)n3C)cc1	active: 39.8 µM
O=C(NC[C@H]1O[C@@H](CO)[C@@H](O)[C@H]1N1CCc2ccccc2C1)Nc1cccc(Cl)c1	inconclusive: 79.4 µM [inhibitor, partial curve, poor fit]
Cc1nncn1C1CN(S(=O)(=O)c2ccc3c(c2)CCC3)C1	inactive
CCN1C(=O)C2CC3(CCN(C(=O)CCc4nc5ccccc5[nH]4)CC3)CN2C1=O (configuration not stated)	inactive
CCN(CC)CC[C@H]1CN(C(=O)c2ccc(OC)cc2)CC[C@H]1CC(=O)O	inactive

— PubChem BioAssay AID1345083 (National Center for Advancing Translational Sciences (NCATS), 2018)
